According to PMC9135253, “Potential of phenothiazines to synergistically block calmodulin and reactivate PP2A in cancer cells” (PLoS ONE, 2022):

How the values were obtained:
[1] = molecular target: Rluc8-K-RasG12V/ GFP2-CaM in HEK-293 EBNA cells (Homo sapiens, UniProt P0DP23); type: cell-based; conditions: for remaining activity at 80 µM / remaining activity at 40 µM / remaining activity at 20 µM / remaining activity at 10 µM / remaining activity at 5 µM / remaining activity at 1 µM / remaining activity at 0.1 µM: HEK293-EBNA, 24 h, read-out: normalized BRET ratio; for remaining activity at 40 µM: log c (inhibitor) /M -4.39794; for remaining activity at 10 µM: log c (inhibitor) /M -5; for remaining activity at 5 µM: log c (inhibitor) /M -5.30103; for remaining activity at 1 µM: log c (inhibitor) /M -6; for remaining activity at 0.1 µM: log c (inhibitor) /M -7; for DSS3 BRET score: K-RasG12V/CaM BRET, dose response 0.1–80 μM
recombinant bovine CaM [2] = molecular target: T1, recombinant bovine CaM (Bos taurus, UniProt P62157); conditions: for affinity / binding to CaM (in words): fluorescence polarization
recombinant bovine CaM [3] = molecular target: T1, recombinant bovine CaM; experiment: biochemical
[4] = log c /M -4.47712, replicates N1, N2
[5] = log c /M -4.95424, replicates N1, N2
[6] = log c /M -5.43136, replicates N1, N2
[7] = log c /M -5.90848, replicates N1, N2
[8] = log c /M -6.38561, replicates N1, N2
[9] = log c /M -6.86273, replicates N1, N2
[10] = log c /M -7.33985, replicates N1, N2
[11] = log c /M -7.81697, replicates N1, N2
[12] = log c /M -8.29409, replicates N1, N2
[13] = log c /M -8.77121, replicates N1, N2

O=S(=O)(N[C@@H]1CCC[C@H](N2c3ccccc3Oc3ccccc32)[C@H]1O)c1ccc(OC(F)(F)F)cc1 [DT-061]
remaining activity at 80 µM ([1]; log c (inhibitor) /M -4.09691, non-treated control = 100, replicates N1-N3): 107% | remaining activity at 80 µM ([1]; log c (inhibitor) /M -4.09691, Mean): 111% | remaining activity at 40 µM ([1]; Mean): 109% | remaining activity at 40 µM ([1]; replicates N1-N3): 111% | remaining activity at 20 µM ([1]; log c (inhibitor) /M -4.69897, Mean): 115% | remaining activity at 20 µM ([1]; log c (inhibitor) /M -4.69897, replicates N1-N3): 115% | remaining activity at 10 µM ([1]; Mean): 90.8% | remaining activity at 10 µM ([1]; replicates N1-N3): 95.1% | remaining activity at 5 µM ([1]; Mean): 100% | remaining activity at 5 µM ([1]; replicates): 95.1% | remaining activity at 1 µM ([1]; Mean): 97.2% | remaining activity at 1 µM ([1]; replicates N1-N3): 94.5% | remaining activity at 0.1 µM ([1]; Mean): 92.8% | remaining activity at 0.1 µM ([1]; replicates N1-N3): 91.9% | DSS3 BRET score ([1]; mean): 0 | DSS3 BRET score ([1]; replicates N1-N3): 0 | effect in the K-Ras/CaM BRET assay (in words) ([1]; response to reviewers): no effect | affinity / binding to CaM (in words) (recombinant bovine CaM [2]): essentially no binding | Anisotropy values (recombinant bovine CaM [2]; log c /M -3.52288, mean): 111.6 | Anisotropy values (recombinant bovine CaM [2]; log c /M -3.52288, replicates N1, N2): 105.5 and 117.7 | Anisotropy values (recombinant bovine CaM [2]; log c /M -4, mean): 122.4 | Anisotropy values (recombinant bovine CaM [2]; log c /M -4, replicates N1, N2): 119.6 and 125.2 | Anisotropy values (recombinant bovine CaM [2]; log c /M -4.47712, mean): 127.35 | Anisotropy values (recombinant bovine CaM [2]; [4]): 128.5 and 126.2 | Anisotropy values (recombinant bovine CaM [2]; log c /M -4.95424, mean): 118.75 | Anisotropy values (recombinant bovine CaM [2]; [5]): 120.1 and 117.4 | Anisotropy values (recombinant bovine CaM [2]; log c /M -5.43136, mean): 117.25 | Anisotropy values (recombinant bovine CaM [2]; [6]): 116.1 and 118.4 | Anisotropy values (recombinant bovine CaM [2]; log c /M -5.90848, mean): 113.75 | Anisotropy values (recombinant bovine CaM [2]; [7]): 115.6 and 111.9 | Anisotropy values (recombinant bovine CaM [2]; log c /M -6.38561, mean): 115.75 | Anisotropy values (recombinant bovine CaM [2]; [8]): 114.2 and 117.3 | Anisotropy values (recombinant bovine CaM [2]; log c /M -6.86273, mean): 115.25 | Anisotropy values (recombinant bovine CaM [2]; [9]): 114.8 and 115.7 | Anisotropy values (recombinant bovine CaM [2]; log c /M -7.33985, mean): 112.5 | Anisotropy values (recombinant bovine CaM [2]; [10]): 115.3 and 109.7 | Anisotropy values (recombinant bovine CaM [2]; log c /M -7.81697, mean): 114.8 | Anisotropy values (recombinant bovine CaM [2]; [11]): 114.4 and 115.2 | Anisotropy values (recombinant bovine CaM [2]; log c /M -8.29409, mean): 112.8 | Anisotropy values (recombinant bovine CaM [2]; [12]): 109.6 and 116 | Anisotropy values (recombinant bovine CaM [2]; log c /M -8.77121, mean): 112.9 | Anisotropy values (recombinant bovine CaM [2]; [13]): 112.8 and 113 | IC50 (recombinant bovine CaM [3]): > 3700 µM | Kd (recombinant bovine CaM [3]): > 200000 nM

Clc1ccc(C(c2ccc(Cl)cc2)n2cc[n+](CC(OCc3ccc(Cl)cc3Cl)c3ccc(Cl)cc3Cl)c2)cc1 (centres unmarked) [calmidazolium]
DSS3 BRET score ([1]; mean): 14.33 | DSS3 BRET score ([1]; replicates N1-N3): 11.4 and 10.8 and 20.8 | Anisotropy values (recombinant bovine CaM [2]; log c /M -5, mean): 70.7 | Anisotropy values (recombinant bovine CaM [2]; log c /M -5, replicates N1, N2, listed as calmidazolium Cl): 71 and 70.4 | Anisotropy values (recombinant bovine CaM [2]; log c /M -5.47712, mean): 67.55 | Anisotropy values (recombinant bovine CaM [2]; log c /M -5.47712, replicates N1, N2, listed as calmidazolium Cl): 65.9 and 69.2 | Anisotropy values (recombinant bovine CaM [2]; log c /M -5.95424, mean): 70.45 | Anisotropy values (recombinant bovine CaM [2]; log c /M -5.95424, replicates N1, N2, listed as calmidazolium Cl): 70.1 and 70.8 | Anisotropy values (recombinant bovine CaM [2]; log c /M -6.43136, mean): 72.95 | Anisotropy values (recombinant bovine CaM [2]; log c /M -6.43136, replicates N1, N2, listed as calmidazolium Cl): 69.7 and 76.2 | Anisotropy values (recombinant bovine CaM [2]; log c /M -6.90848, mean): 85.15 | Anisotropy values (recombinant bovine CaM [2]; log c /M -6.90848, replicates N1, N2, listed as calmidazolium Cl): 78.3 and 92 | Anisotropy values (recombinant bovine CaM [2]; log c /M -7.38561, mean): 96.95 | Anisotropy values (recombinant bovine CaM [2]; log c /M -7.38561, replicates N1, N2, listed as calmidazolium Cl): 90.9 and 103 | Anisotropy values (recombinant bovine CaM [2]; log c /M -7.86273, mean): 103.65 | Anisotropy values (recombinant bovine CaM [2]; log c /M -7.86273, replicates N1, N2, listed as calmidazolium Cl): 95.9 and 111.4 | Anisotropy values (recombinant bovine CaM [2]; log c /M -8.33985, mean): 107.9 | Anisotropy values (recombinant bovine CaM [2]; log c /M -8.33985, replicates N1, N2, listed as calmidazolium Cl): 102.5 and 113.3 | Anisotropy values (recombinant bovine CaM [2]; log c /M -8.81697, mean): 108.7 | Anisotropy values (recombinant bovine CaM [2]; log c /M -8.81697, replicates N1, N2, listed as calmidazolium Cl): 102.7 and 114.7 | Anisotropy values (recombinant bovine CaM [2]; log c /M -9.29409, mean): 109.7 | Anisotropy values (recombinant bovine CaM [2]; log c /M -9.29409, replicates N1, N2, listed as calmidazolium Cl): 103.4 and 116 | Anisotropy values (recombinant bovine CaM [2]; log c /M -9.77121, mean): 111.35 | Anisotropy values (recombinant bovine CaM [2]; log c /M -9.77121, replicates N1, N2, listed as calmidazolium Cl): 105.2 and 117.5 | Anisotropy values (recombinant bovine CaM [2]; log c /M -10.2483, mean): 109.25 | Anisotropy values (recombinant bovine CaM [2]; log c /M -10.2483, replicates N1, N2, listed as calmidazolium Cl): 104.1 and 114.4 | IC50 (recombinant bovine CaM [3]): 0.08 ± 0.04 µM | Kd (recombinant bovine CaM [3]): 1.1 ± 0.1 nM

FC(F)(F)c1ccc2c(c1)N(CCCN1CCN(CCCl)CC1)c1ccccc1S2 [fluphenazine mustard]
normalized BRET ratio [1]: 49.87 | remaining activity at 40 µM ([1]; Mean): 41.6% | remaining activity at 10 µM ([1]; Mean): 65.4% | remaining activity at 10 µM ([1]; replicates N1-N3): 57.1% | remaining activity at 5 µM ([1]; Mean): 72.1% | remaining activity at 5 µM ([1]; replicates): 72.1% | remaining activity at 1 µM ([1]; Mean): 85.9% | remaining activity at 1 µM ([1]; replicates N1-N3): 93.2% | remaining activity at 0.1 µM ([1]; Mean): 97.5% | remaining activity at 0.1 µM ([1]; replicates N1-N3): 92.5% | remaining activity at 80 µM [1]: 39.4% | increase of intracellular activity against CaM/ K-RasG12V (DSS3 BRET) compared to Flu ([1]; HEK-293 EBNA): more than a factor of two | DSS3 BRET score ([1]; mean): 13.1 | DSS3 BRET score ([1]; replicates N1-N3): 15.2 and 12.2 and 11.9 | affinity / binding to CaM (in words) (recombinant bovine CaM [2]): submicromolar affinities | Anisotropy values (recombinant bovine CaM [2]; log c /M -4, mean): 66.85 | Anisotropy values (recombinant bovine CaM [2]; log c /M -4, replicates N1, N2): 67.3 and 66.4 | Anisotropy values (recombinant bovine CaM [2]; log c /M -4.47712, mean): 68.05 | Anisotropy values (recombinant bovine CaM [2]; [4]): 67.2 and 68.9 | Anisotropy values (recombinant bovine CaM [2]; log c /M -4.95424, mean): 75.65 | Anisotropy values (recombinant bovine CaM [2]; [5]): 75 and 76.3 | Anisotropy values (recombinant bovine CaM [2]; log c /M -5.43136, mean): 94.85 | Anisotropy values (recombinant bovine CaM [2]; [6]): 93.5 and 96.2 | Anisotropy values (recombinant bovine CaM [2]; log c /M -5.90848, mean): 105 | Anisotropy values (recombinant bovine CaM [2]; [7]): 104.8 and 105.2 | Anisotropy values (recombinant bovine CaM [2]; log c /M -6.38561, mean): 108.95 | Anisotropy values (recombinant bovine CaM [2]; [8]): 108.2 and 109.7 | Anisotropy values (recombinant bovine CaM [2]; log c /M -6.86273, mean): 109.35 | Anisotropy values (recombinant bovine CaM [2]; [9]): 108.9 and 109.8 | Anisotropy values (recombinant bovine CaM [2]; log c /M -7.33985, mean): 111.1 | Anisotropy values (recombinant bovine CaM [2]; [10]): 110.8 and 111.4 | Anisotropy values (recombinant bovine CaM [2]; log c /M -7.81697, mean): 109.95 | Anisotropy values (recombinant bovine CaM [2]; [11]): 109.5 and 110.4 | Anisotropy values (recombinant bovine CaM [2]; log c /M -8.29409, mean): 111.45 | Anisotropy values (recombinant bovine CaM [2]; [12]): 111.4 and 111.5 | Anisotropy values (recombinant bovine CaM [2]; log c /M -8.77121, mean): 110.15 | Anisotropy values (recombinant bovine CaM [2]; [13]): 111.1 and 109.2 | IC50 (recombinant bovine CaM [3]): 4.9 ± 0.5 µM | Kd (recombinant bovine CaM [3]): 290 ± 30 nM

OCCN1CCN(CCCN2c3ccccc3Sc3ccc(C(F)(F)F)cc32)CC1 [fluphenazine]
DSS3 BRET score ([1]; mean): 4.73 | DSS3 BRET score ([1]; replicates N1-N3): 5.3 and 3.6

CC(C)=C[C@H]1C[C@H](C)[C@]2(CC[C@]3(C)C[C@H]4[C@H](C(=O)C[C@@]4(C)O)/C(C=O)=C\C[C@H]32)O1 [ophiobolin A]
normalized BRET ratio [1]: 16.38 and 23.8 | remaining activity at 40 µM ([1]; Mean): 20.4% | remaining activity at 40 µM ([1]; replicates N1-N3): 22.1% | remaining activity at 10 µM ([1]; Mean): 30.5% | remaining activity at 10 µM ([1]; replicates N1-N3): 29.1% | remaining activity at 5 µM ([1]; Mean): 45% | remaining activity at 5 µM ([1]; replicates): 45% | remaining activity at 1 µM ([1]; Mean): 82.5% | remaining activity at 1 µM ([1]; replicates N1-N3): 81.2% | remaining activity at 0.1 µM ([1]; Mean): 96.5% | remaining activity at 0.1 µM ([1]; replicates N1-N3): 89.5% | remaining activity at 20 µM [1]: 27.7% | remaining activity at 80 µM [1]: 16.1% | DSS3 BRET score ([1]; mean): 31.3 | DSS3 BRET score ([1]; replicates N1-N3): 27.3 and 28.9 and 37.7

“And” between values parts separate entries of the source, which are not always exact repeats. Equal values may be shown once. Read-outs that look alike come from different tables or passages of the source.
